# Reference: PubChem BioAssay AID256 (DTP/NCI, 2004)
# Values joined by “and” are separate entries in the source; they are usually repeats but may differ in a detail not shown here. Equal values may be shown once. Further values from the same series stand in other lists. Inconclusive results and toxic doses are left out.
# System: CD2F1 mice, L1210 leukemia ip, survival T/C
# Assay: NCI In Vivo Anticancer Drug Screen. Data for tumor model L1210 Leukemia (intraperitoneal) in CD2F1 (CDF1) mice
# Settings: endpoint: mean survival time, higher = longer survival
# Method in brief: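 Activity against a transplanted murine tumor was judged by comparing the compound group with a vehicle group. The outcome in the treated animals was divided by that in the controls.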
smiles,measurement,setting,value
O=c1[nH]cc(F)c(=O)[nH]1,T/C,"dose: 3.13 mg/kg/injection, schedule: Q01DX009 (ip), vehicle: saline",111 % of control
same,T/C,"dose: 3.75 mg/kg/injection, schedule: Q01DX003 (oral), vehicle: saline",100 % of control
same,T/C,"dose: 4.0 mg/kg/injection, schedule: Q01DX009 (oral), vehicle: saline",101 % of control
same,T/C,"dose: 6.25 mg/kg/injection, schedule: Q03HX024 (oral), vehicle: saline",98 % of control
same,T/C,"dose: 7.5 mg/kg/injection, schedule: Q01DX003 (oral), vehicle: saline",98 % of control
same,T/C,"dose: 7.5 mg/kg/injection, schedule: Q01DX005 (oral), vehicle: saline",101 % of control
same,T/C,"dose: 8.0 mg/kg/injection, schedule: Q01DX009 (oral), vehicle: saline",101 % of control
same,T/C,"dose: 8.0 mg/kg/injection, schedule: Q03HX024 (ip), vehicle: water",184 % of control
same,T/C,"dose: 10.0 mg/kg/injection, schedule: Q03HX024 (ip), vehicle: saline",213 % of control
same,T/C,"dose: 12.5 mg/kg/injection, schedule: Q03HX008 (oral), vehicle: saline",100 % of control
same,T/C,"dose: 12.5 mg/kg/injection, schedule: Q03HX016 (ip), vehicle: saline",96 % of control
same,T/C,"dose: 14.0 mg/kg/injection, schedule: Q01DX009 (ip), vehicle: saline sonified",176 % of control
same,T/C,"dose: 14.0 mg/kg/injection, schedule: Q01DX009 (ip), vehicle: saline with Tween-80",186 % of control
same,T/C,"dose: 14.0 mg/kg/injection, schedule: Q01DX017 (ip), vehicle: saline",211 % of control
same,T/C,"dose: 15.0 mg/kg/injection, schedule: Q01DX003 (oral), vehicle: saline",99 % of control
same,T/C,"dose: 15.0 mg/kg/injection, schedule: Q01DX005 (oral), vehicle: saline",103 % of control
same,T/C,"dose: 15.7 mg/kg/injection, schedule: Q01DX001 (oral), vehicle: saline",110 % of control
same,T/C,"dose: 15.7 mg/kg/injection, schedule: Q## X003 (oral), vehicle: saline",112 % of control
same,T/C,"dose: 16.0 mg/kg/injection, schedule: Q03HX016 (ip), vehicle: water",184 % of control
same,T/C,"dose: 18.0 mg/kg/injection, schedule: Q01DX009 (ip), vehicle: saline",194 % of control
same,T/C,"dose: 20.0 mg/kg/injection, schedule: Q01DX005 (ip), vehicle: saline",187 % of control
same,T/C,"dose: 20.0 mg/kg/injection, schedule: Q01DX006 (ip), vehicle: saline",183 % of control
same,T/C,"dose: 20.0 mg/kg/injection, schedule: Q01DX007 (ip), vehicle: saline",192 % of control
same,T/C,"dose: 20.0 mg/kg/injection, schedule: Q01DX009 (ip), vehicle: saline sonified",178 % of control and 197 % of control
same,T/C,"dose: 27.0 mg/kg/injection, schedule: Q01DX005 (ip), vehicle: saline",193 % of control
same,T/C,"dose: 30.0 mg/kg/injection, schedule: Q01DX005 (ip), vehicle: saline",178 % of control and 188 % of control and 191 % of control
same,T/C,"dose: 30.0 mg/kg/injection, schedule: Q01DX009 (ip), vehicle: saline with Tween-80",177 % of control
same,T/C,"dose: 31.3 mg/kg/injection, schedule: Q01DX001 (oral), vehicle: saline",108 % of control
same,T/C,"dose: 31.3 mg/kg/injection, schedule: Q## X003 (oral), vehicle: saline",108 % of control
same,T/C,"dose: 32.0 mg/kg/injection, schedule: Q01DX009 (ip), vehicle: water",100 % of control
same,T/C,"dose: 32.0 mg/kg/injection, schedule: Q03HX008 (ip), vehicle: water",104 % of control
same,T/C,"dose: 32.0 mg/kg/injection, schedule: Q03HX024 (ip), vehicle: water",100 % of control
same,T/C,"dose: 33.8 mg/kg/injection, schedule: Q01DX009 (ip), vehicle: saline",95 % of control
same,T/C,"dose: 39.0 mg/kg/injection, schedule: Q01DX009 (ip), vehicle: saline",104 % of control and 108 % of control
same,T/C,"dose: 39.0 mg/kg/injection, schedule: Q01DX017 (ip), vehicle: saline",105 % of control
same,T/C,"dose: 40.0 mg/kg/injection, schedule: Q01DX006 (ip), vehicle: saline",101 % of control
same,T/C,"dose: 40.0 mg/kg/injection, schedule: Q01DX007 (ip), vehicle: saline",102 % of control
same,T/C,"dose: 40.0 mg/kg/injection, schedule: Q03DX003 (ip), vehicle: saline",180 % of control
same,T/C,"dose: 40.0 mg/kg/injection, schedule: Q03HX016 (ip), vehicle: saline",82 % of control
same,T/C,"dose: 40.0 mg/kg/injection, schedule: Q04DX003 (ip), vehicle: saline sonified",186 % of control
same,T/C,"dose: 50.0 mg/kg/injection, schedule: Q01DX009 (ip), vehicle: saline",90 % of control and 92 % of control
same,T/C,"dose: 50.0 mg/kg/injection, schedule: Q03HX016 (ip), vehicle: saline",104 % of control
same,T/C,"dose: 50.0 mg/kg/injection, schedule: Q03HX024 (oral), vehicle: saline",87 % of control
same,T/C,"dose: 60.0 mg/kg/injection, schedule: Q01DX003 (oral), vehicle: saline",103 % of control
same,T/C,"dose: 60.0 mg/kg/injection, schedule: Q01DX005 (ip), vehicle: saline",102 % of control
same,T/C,"dose: 60.0 mg/kg/injection, schedule: Q04DX003 (ip), vehicle: saline sonified",188 % of control and 209 % of control
same,T/C,"dose: 60.0 mg/kg/injection, schedule: Q04DX003 (ip), vehicle: saline with Tween-80",181 % of control and 214 % of control
same,T/C,"dose: 62.5 mg/kg/injection, schedule: Q## X003 (oral), vehicle: saline",106 % of control
same,T/C,"dose: 64.0 mg/kg/injection, schedule: Q01DX009 (ip), vehicle: water",106 % of control
same,T/C,"dose: 64.0 mg/kg/injection, schedule: Q03HX008 (ip), vehicle: water",87 % of control
same,T/C,"dose: 64.0 mg/kg/injection, schedule: Q03HX016 (ip), vehicle: water",96 % of control
same,T/C,"dose: 66.0 mg/kg/injection, schedule: Q04DX003 (ip), vehicle: saline",195 % of control and 197 % of control
